Data: paper PMC5426369
Results are given in words; binding and its absence hold for the method and conditions named. Binding seen in cells or lysates may run through a third protein. Some binding calls cover weakened binding; strength is not graded here. One block for each binder: values may come before it.

Chains of the proteins cited; added tags and fusions are not shown.
UniProt P11275: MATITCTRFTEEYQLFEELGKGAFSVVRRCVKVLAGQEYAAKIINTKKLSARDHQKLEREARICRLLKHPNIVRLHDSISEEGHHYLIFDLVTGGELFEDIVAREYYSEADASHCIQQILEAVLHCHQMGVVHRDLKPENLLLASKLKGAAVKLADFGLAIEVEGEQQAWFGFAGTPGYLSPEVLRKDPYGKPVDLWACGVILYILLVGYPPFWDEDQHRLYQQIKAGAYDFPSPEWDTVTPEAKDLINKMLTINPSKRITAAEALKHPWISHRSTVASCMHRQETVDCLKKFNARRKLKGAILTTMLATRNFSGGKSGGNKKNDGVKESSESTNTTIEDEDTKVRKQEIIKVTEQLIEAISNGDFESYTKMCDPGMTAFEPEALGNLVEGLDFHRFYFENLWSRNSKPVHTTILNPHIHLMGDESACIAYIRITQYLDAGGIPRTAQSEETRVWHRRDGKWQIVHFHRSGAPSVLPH
UniProt P08413: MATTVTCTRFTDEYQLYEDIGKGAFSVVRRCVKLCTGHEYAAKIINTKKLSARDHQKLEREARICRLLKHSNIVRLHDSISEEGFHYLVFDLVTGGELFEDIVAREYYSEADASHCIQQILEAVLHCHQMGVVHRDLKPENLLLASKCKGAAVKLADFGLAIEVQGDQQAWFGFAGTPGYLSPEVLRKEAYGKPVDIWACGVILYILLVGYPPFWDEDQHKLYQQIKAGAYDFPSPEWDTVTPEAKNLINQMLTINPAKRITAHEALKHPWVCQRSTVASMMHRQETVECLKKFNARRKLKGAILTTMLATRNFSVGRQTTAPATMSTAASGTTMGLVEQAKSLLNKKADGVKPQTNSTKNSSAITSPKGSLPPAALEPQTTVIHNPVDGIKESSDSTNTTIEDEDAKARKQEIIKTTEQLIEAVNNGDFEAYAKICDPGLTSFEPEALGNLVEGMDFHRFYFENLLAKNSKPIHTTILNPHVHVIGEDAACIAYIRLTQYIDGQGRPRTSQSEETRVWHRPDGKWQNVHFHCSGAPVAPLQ

Key:
[1] = target: T1, Activity-regulated cytoskeleton-associated protein (Arc), unmodified 50 kDa, endogenous (rat (endogenous in dentate gyrus)) (UniProt Q63053); experiment: co-IP; native proteins from pooled rat dentate gyrus cytoskeletal fractions (subcellular fractionation kit; HFS-treated and control); immunoblot
T1 sequence: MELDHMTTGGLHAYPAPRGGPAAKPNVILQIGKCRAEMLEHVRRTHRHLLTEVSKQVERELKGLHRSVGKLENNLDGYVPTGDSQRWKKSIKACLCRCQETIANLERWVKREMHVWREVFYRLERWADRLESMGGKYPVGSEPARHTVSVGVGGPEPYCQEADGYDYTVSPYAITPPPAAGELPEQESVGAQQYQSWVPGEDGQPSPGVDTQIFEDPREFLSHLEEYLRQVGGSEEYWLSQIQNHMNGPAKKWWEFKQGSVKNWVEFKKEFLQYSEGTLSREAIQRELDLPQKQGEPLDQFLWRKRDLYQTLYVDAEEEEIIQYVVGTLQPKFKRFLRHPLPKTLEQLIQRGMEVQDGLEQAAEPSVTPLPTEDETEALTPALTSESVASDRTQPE

[2] = target: calcium/calmodulin-dependent protein kinase II-alpha (CaMKIIα), endogenous (rat (endogenous in dentate gyrus)) (UniProt P11275); experiment: co-IP; native proteins from rat dentate gyrus lysate (HFS-treated, contralateral control or naive); antibody on protein G-agarose or protein A/G magnetic beads, 4°C, 20 mM Hepes pH 7.4, 137 mM NaCl, 1 mM EDTA, 0.5% NP-40, 20 mM NEM; immunoblot
[3] = target: calcium/calmodulin-dependent protein kinase II-beta (CaMKIIβ), endogenous (rat (endogenous in dentate gyrus)), P08413; experiment: as above; conditions: remark: other sources report otherwise
[4] = target: T1, Activity-regulated cytoskeleton-associated protein (Arc), unmodified 50 kDa, endogenous (rat (endogenous in dentate gyrus)); experiment: as above
[5] = target: T2, drebrin A, endogenous (rat (endogenous in dentate gyrus)) (UniProt Q07266); experiment: co-IP; native proteins from pooled rat dentate gyrus cytoskeletal fractions (subcellular fractionation kit; HFS-treated and control); immunoblot
T2 sequence: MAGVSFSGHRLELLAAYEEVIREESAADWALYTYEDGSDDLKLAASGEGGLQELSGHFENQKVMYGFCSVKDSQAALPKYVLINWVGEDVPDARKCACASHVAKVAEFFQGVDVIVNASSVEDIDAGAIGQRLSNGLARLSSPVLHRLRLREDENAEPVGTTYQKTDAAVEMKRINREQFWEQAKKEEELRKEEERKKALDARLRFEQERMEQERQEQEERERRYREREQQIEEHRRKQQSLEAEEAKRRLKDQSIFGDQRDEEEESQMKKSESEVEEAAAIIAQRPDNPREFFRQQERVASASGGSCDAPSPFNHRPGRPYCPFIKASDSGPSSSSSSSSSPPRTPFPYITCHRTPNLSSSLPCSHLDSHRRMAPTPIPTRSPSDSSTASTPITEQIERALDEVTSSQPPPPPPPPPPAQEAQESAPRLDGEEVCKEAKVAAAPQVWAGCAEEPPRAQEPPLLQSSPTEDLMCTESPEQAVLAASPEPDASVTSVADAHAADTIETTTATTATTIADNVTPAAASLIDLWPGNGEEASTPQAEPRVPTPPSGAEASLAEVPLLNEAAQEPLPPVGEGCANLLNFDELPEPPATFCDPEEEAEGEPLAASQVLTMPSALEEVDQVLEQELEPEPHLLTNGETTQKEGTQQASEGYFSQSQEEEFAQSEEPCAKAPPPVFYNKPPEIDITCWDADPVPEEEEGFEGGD

[6] = target: calcium/calmodulin-dependent protein kinase II-beta (CaMKIIβ), endogenous (rat (endogenous in dentate gyrus)) (UniProt P08413); experiment: co-IP; native proteins from rat dentate gyrus lysate (HFS-treated, contralateral control or naive); antibody on protein G-agarose or protein A/G magnetic beads, 4°C, 20 mM Hepes pH 7.4, 137 mM NaCl, 1 mM EDTA, 0.5% NP-40, 20 mM NEM; immunoblot
[7] = target: T3, dynamin 2, endogenous (rat (endogenous in dentate gyrus)) (UniProt P39052); experiment: as above
T3 sequence: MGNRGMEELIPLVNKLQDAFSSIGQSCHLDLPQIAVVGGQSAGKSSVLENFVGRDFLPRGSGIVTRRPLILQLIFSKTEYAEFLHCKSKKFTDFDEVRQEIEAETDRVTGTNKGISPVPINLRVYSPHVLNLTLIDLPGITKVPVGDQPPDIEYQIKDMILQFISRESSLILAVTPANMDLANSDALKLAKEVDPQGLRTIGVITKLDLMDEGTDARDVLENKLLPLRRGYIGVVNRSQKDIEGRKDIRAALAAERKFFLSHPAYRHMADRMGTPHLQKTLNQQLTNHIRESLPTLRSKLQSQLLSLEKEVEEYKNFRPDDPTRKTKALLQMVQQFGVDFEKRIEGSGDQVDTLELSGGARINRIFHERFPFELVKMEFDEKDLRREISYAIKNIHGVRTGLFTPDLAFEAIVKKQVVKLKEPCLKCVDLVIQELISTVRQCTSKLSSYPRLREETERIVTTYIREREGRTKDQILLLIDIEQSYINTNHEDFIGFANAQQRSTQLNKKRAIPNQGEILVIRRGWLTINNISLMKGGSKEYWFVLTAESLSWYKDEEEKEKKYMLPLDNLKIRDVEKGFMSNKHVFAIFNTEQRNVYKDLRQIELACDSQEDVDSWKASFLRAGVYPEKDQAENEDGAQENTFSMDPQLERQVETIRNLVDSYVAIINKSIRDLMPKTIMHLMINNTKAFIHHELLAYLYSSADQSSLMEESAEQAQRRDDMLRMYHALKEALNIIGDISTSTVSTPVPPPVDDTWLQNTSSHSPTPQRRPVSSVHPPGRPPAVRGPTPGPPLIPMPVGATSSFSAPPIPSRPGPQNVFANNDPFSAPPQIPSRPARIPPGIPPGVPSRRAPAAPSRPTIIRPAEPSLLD

[8] = target: T2, drebrin A, endogenous (rat (endogenous in dentate gyrus)); experiment: as above

binding [1]: binds | binding [2]: no binding
B1: drebrin A, endogenous (protein, UniProt Q07266 1-707)
chain: T2 sequence

binding [3]: no binding
B2: drebrin A, endogenous, Q07266 1-707 (protein)
chain: T2 sequence

binding [4]: binds
B3: dynamin 2, endogenous (protein, UniProt P39052 1-870)
chain: T3 sequence

binding [5]: binds | binding [2]: binds | binding [6]: binds | binding [7]: binds | binding [8]: binds
B4: Activity-regulated cytoskeleton-associated protein (Arc), unmodified 50 kDa, endogenous (protein, UniProt Q63053 1-396)
chain: T1 sequence
